Results reported in PubChem BioAssay AID1832 (Broad Institute, 2009).
In all, about 300,000 compounds went through this assay and about 1,100 (0.37%) were called active. Inconclusive means that the source gave no clear call. Such entries were picked first, then a sample of the others.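 The calls were made as follows: active = inhibition past about -25% in most replicates, and total fluorescence under double the plate's negative control median (limit read from the data); inconclusive = replicates evenly split on the limit, or fluorescence at least double controls; inactive = too little inhibition in most replicates.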

biological target: Zinc finger protein mex-5 (Caenorhabditis elegans) (UniProt Q9XUB2); assay: MEX-5 zinc finger RNA-binding disruptors – biochemical, C. elegans, fluorescence polarization, MLPCN library, primary screen (AID 1832); conditions: MEX-5/FITC-TCR2 RNA binding, at 10 µM, stronger effect = lower value;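 also: 0% = DMSO and -100% = 5 µM competing unlabeled TCR2 RNA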
Chain of UniProt Q9XUB2 (Q9XUB2 whole entry, looked up): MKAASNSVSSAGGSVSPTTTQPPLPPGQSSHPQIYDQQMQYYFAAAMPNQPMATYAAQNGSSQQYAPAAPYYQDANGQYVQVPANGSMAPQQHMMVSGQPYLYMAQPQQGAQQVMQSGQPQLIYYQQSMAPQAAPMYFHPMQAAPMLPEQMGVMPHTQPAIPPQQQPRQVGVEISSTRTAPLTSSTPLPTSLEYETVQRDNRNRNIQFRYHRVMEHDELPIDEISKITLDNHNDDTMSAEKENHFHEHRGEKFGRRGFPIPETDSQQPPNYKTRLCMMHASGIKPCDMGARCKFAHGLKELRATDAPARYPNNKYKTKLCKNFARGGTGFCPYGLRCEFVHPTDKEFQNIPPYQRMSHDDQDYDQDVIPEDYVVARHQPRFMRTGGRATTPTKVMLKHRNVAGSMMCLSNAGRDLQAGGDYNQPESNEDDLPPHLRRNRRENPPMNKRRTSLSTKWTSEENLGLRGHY

| SMILES | activity score (negative = inhibition of binding) |
| --- | --- |
| COc1ccc(CNC(=O)COC(=O)c2cc(-c3ccc(Cl)s3)nc3ccccc23)cc1 | inconclusive: -17.9% |
| COc1ccc2c(c1)S/C(=C\C(=O)c1ccncc1)N2C | inconclusive: -20.2% |
| O=C(Nc1ccncc1)c1cc(S(=O)(=O)N2CCOCC2)ccc1Cl | inactive: 0.592% |
| COc1ccc(Nc2nc(N3CCN(S(=O)(=O)N(C)C)CC3)nc3ccccc23)cc1 | inactive: -0.685% |
| COc1cccc(/C=N/NC(=O)c2ccc(=O)[nH]n2)c1O | active: -35% |
| O=C(O)C(=O)/C(=C\c1ccc(Cl)cc1)c1ccc2ccccc2n1 | inconclusive: -14.5% |
| CC1=NN(c2cccc(C(=O)O)c2)C(=O)/C1=C\C=C\c1ccco1 | active: -26.8% |
| O=C1/C(=C/c2ccc(O)c(O)c2)SC(=S)N1Nc1ccccc1 | inconclusive: -24.4% |
| COc1ccc(COC(=O)Nc2cn(C)nc2C(F)(F)F)cc1 | inactive: -0.868% |
| Cc1nc(Cl)c2c(n1)NC1=C(O2)C(=O)CCC1 | inconclusive: -102% [fluorescent] |
| CC1(OC(=O)C2CCCC2)C(=O)C=C2C=C(c3ccc(C#N)cc3)OC=C2C1=O (stereo not drawn) | active: -40% |
| CN=c1scc(C)n1/N=C/c1ccc(O)c(O)c1O | active: -32.1% |
| COc1ccc(N=Cc2cc3c(cc2O)OC(N)=C(C#N)C3c2ccccc2)cc1 (stereo not drawn) | inconclusive: -23.2% |
| CC1(C)c2[nH]c3ccccc3c2C[C@@H]2C(=O)N(c3ccc(F)cc3F)C(=O)N21 | inconclusive: -25.4% |
| COC(=O)c1ccc2c(c1)C(C)(C)C(/C=C/c1ccc(O)cc1)=[N+]2C | inconclusive: 89% [fluorescent] |
| CCCCNC(=S)Nc1ccc(OC)nc1 | inactive: -17.4% |
| O=[N+]([O-])c1ccccc1S(=O)(=O)n1nnc2ccccc21 | inconclusive: -13.5% |
| COc1ccccc1NC(=O)C1CCCN(c2cnccn2)C1 (stereo not drawn) | inactive: 0.439% |
| COc1ccc(CCCc2nc3ccccc3[nH]2)cc1 | inconclusive: -24.7% |
| CN1C(=O)/C(=C\c2ccc(N(C)C)cc2)OC1=S | active: -89.4% |
| Cc1cc(/C=c2/sc3nc4ccccc4n3c2=O)c(C)n1-c1ccccn1 | inconclusive: -22.5% |
| COC(=O)CNc1cccc(C(F)(F)F)c1 | inconclusive: -15.2% |

| SMILES | activity score (negative = inhibition of binding) |
| --- | --- |
| O=C(CSc1nc(-c2ccccc2)cs1)NCCN1C(=O)CSC1=O | inactive: 2.87% |
| Cc1ccsc1/C=C/C1=Cc2c(sc(NC(=O)CSc3n[nH]c(N)n3)c2C#N)C(C)(C)C1 | inactive: 1.36% |
| C=CCSc1nnc(N2C(=O)C(O)=C(C(=O)c3ccco3)C2c2ccccc2F)s1 (stereo not drawn) | active: -35.3% |
| O=C(c1ccc(F)cc1)N1CCN(C2CCC(c3ccccc3)CC2)CC1 (stereo not drawn) | inconclusive: -13% |
| Cc1ccc2[nH]c(C)c(/C=C/c3cc[n+](C)cc3)c2c1 | inconclusive: 60.8% [fluorescent] |
| O=C1NC(=O)[C@@H]2C3c4ccccc4C=CN3[C@H](C(=O)c3cccs3)[C@H]12 (stereo partly drawn) | active: -53.2% |
| COc1ccccc1Nc1nc2nonc2nc1N1CCCCC1C (stereo not drawn) | inconclusive: -19.4% |
| Cc1ccc(N=Cc2sc(O)c3ccccc23)c(C)c1 | active: -30.7% |
| CCC(C)n1c(=N)c(C#N)cc2c(=O)n3cccc(C)c3nc21 (stereo not drawn) | inconclusive: -18% |
| CCOC(=O)c1ccc(N=Nc2c(C)c(C#N)c(O)[nH]c2=O)cc1 | inconclusive: -19.6% |
| Cc1ccccc1NS(=O)(=O)c1cc(C(=O)N2CCCC2)ccc1C | inconclusive: -12.2% |
| CN1CCS/C1=C/C=C1\SC(=S)N(CC(=O)O)C1=O | inconclusive: 101% [fluorescent] |
| Cc1ccccc1-c1ccc(/C=C2/SC(N3CCOCC3)=NC2=O)o1 | inconclusive: -22% |
| CC(C)(O)C(=O)NNC(=S)NCc1ccco1 | active: -32.3% |
| CCOCCCn1c(=NC(C)=O)c(C#N)cc2c(=O)n3ccccc3nc21 | inconclusive: -23.4% |
| COc1cc2ccccc2cc1C(=O)NC(=S)Nc1cc(C(=O)O)ccc1C | inconclusive: -20.4% |
| CCOC(=O)CSc1nc2ccc(Nc3nc(N4CCOCC4)nc(N4CCOCC4)n3)cc2s1 | inconclusive: -22.8% |
| COc1ccc2c(/C=C/c3cc[n+](C)cc3)c[nH]c2c1 | inconclusive: 54.1% [fluorescent] |
| COc1ccc(OC)c2c1C(=O)c1ccccc1C2=O | inconclusive: -132% [fluorescent] |
| CN(C)c1cc(-c2ccc([N+](=O)[O-])cc2)oc(=O)c1Cl | inconclusive: -23.5% |
| CCCCN(C)C1=CC2=CC(=C(C#N)C#N)CCC2CC1 (stereo not drawn) | inconclusive: 9.59% [fluorescent] |
